This is one part of the list.
B1: PhoQ; a variant is named by its letters at X, in order, P23837 (parent)
chain: MKKLLRLFFPLSLRVRFLLATAAVVLVLSLAYGMVALIGYSVSFDKTTFRLLRGESNLFYTLAKWENNKLHVELPENIDKQSPTMTLIYDENGQLLWAQRDVPWLMKMIQPDWLKSNGFHEIEADVNDTSLLLSGDHSIQQQLQEVREDDDDAEMTHSVAVNVYPATSRMPKLTIVVVDTIPVELKSSYMVWSWFIYVLSANLLLVIPLLWVAAWWSLRPIEALAKEVRELEEHNRELLNPATTRELTSLVRNLNRLLKSERERYDKYRTTLTDLTHSLKTPLXXLQXXLRSLRSEKMSVSDAEPVMLEQISRISQQIGYYLHRASMRGGTLLSRELHPVAPLLDNLTSALNKVYQRKGVNISLDISPEISFVGEQNDFVEVMGNVLDNACKYCLEFVEISARQTDEHLYIVVEDDGPGIPLSKREVIFDRGQRVDTLRPGQGVGLAVAREITEQYEGKIVAGESMLGGARMEVIFGRQHSAPKDE

Variants of: B1
Experiment: enrichment ratio after two sorts for PhoP signalling (ratio (wild type AVST 3.29)); higher = more functional
Conditions: with PhoP (E. coli)

Row | Variant | enrichment ratio
1 | ASFQ | 1.8
2 | NACS | ≤ 0.25
3 | GTFD | ≤ 0.25
4 | LFRL | ≤ 0.25
5 | ECHR | ≤ 0.25
6 | QKAT | ≤ 0.25
7 | DEKR | ≤ 0.25
8 | YGYD | ≤ 0.25
9 | NDTC | ≤ 0.25
10 | PVGD | ≤ 0.25
11 | QPGC | ≤ 0.25
12 | PADD | ≤ 0.25
13 | PPGT | ≤ 0.25
14 | GTHF | ≤ 0.25
15 | RIWS | ≤ 0.25
16 | DRHG | ≤ 0.25
17 | YRHI | ≤ 0.25
18 | GPCK | ≤ 0.25
19 | AWEF | ≤ 0.25
20 | LADC | ≤ 0.25
21 | QDPY | ≤ 0.25
22 | ICTA | ≤ 0.25
23 | QVTC | ≤ 0.25
24 | SKYT | ≤ 0.25

Row | Variant | enrichment ratio
25 | MLAD | ≤ 0.25
26 | LSPD | ≤ 0.25
27 | ADFT | ≤ 0.25
28 | RDPT | ≤ 0.25
29 | VPLH | ≤ 0.25
30 | TART | ≤ 0.25
31 | AVPG | ≤ 0.25
32 | PWVF | ≤ 0.25
33 | LDAM | ≤ 0.25
34 | PISH | ≤ 0.25
35 | FQKQ | ≤ 0.25
36 | DSPR | ≤ 0.25
37 | AHCG | 15.3
38 | LWPW | ≤ 0.25
39 | ETVH | ≤ 0.25
40 | ATKG | ≤ 0.25
41 | LGID | ≤ 0.25
42 | MNSG | ≤ 0.25
43 | THRN | ≤ 0.25
44 | NVPV | ≤ 0.25
45 | HSWK | ≤ 0.25
46 | PPIK | ≤ 0.25
47 | FDVS | ≤ 0.25
48 | QMRR | ≤ 0.25

Row | Variant | enrichment ratio
49 | IVTG | ≤ 0.25
50 | MITD | ≤ 0.25
51 | YQFN | ≤ 0.25
52 | WFDE | ≤ 0.25
53 | QVIC | ≤ 0.25
54 | TSYR | 0.351
55 | AIIN | 4.99
56 | EGKC | ≤ 0.25
57 | HNGH | ≤ 0.25
58 | LSDH | ≤ 0.25
59 | PPEA | ≤ 0.25
60 | RRFG | ≤ 0.25
61 | RKLP | ≤ 0.25
62 | SAKS | ≤ 0.25
63 | FQKY | ≤ 0.25
64 | IHFF | ≤ 0.25
65 | AQWI | ≤ 0.25
66 | YKNH | ≤ 0.25
67 | NWDK | ≤ 0.25
68 | SDQY | ≤ 0.25
69 | PGLF | ≤ 0.25
70 | RSRQ | ≤ 0.25
71 | WRVQ | ≤ 0.25
72 | QDSH | ≤ 0.25

Row | Variant | enrichment ratio
73 | WKMA | ≤ 0.25
74 | RMGD | ≤ 0.25
75 | WDYV | ≤ 0.25
76 | TAQS | 14.2
77 | IQGV | ≤ 0.25
78 | QGYE | 4.13
79 | SKEQ | ≤ 0.25
80 | VDMV | ≤ 0.25
81 | IFDA | ≤ 0.25
82 | NYHT | ≤ 0.25
83 | QNTE | ≤ 0.25
84 | FKFH | ≤ 0.25
85 | TGCS | 13
86 | PFGS | ≤ 0.25
87 | HIAL | ≤ 0.25
88 | FMEK | ≤ 0.25
89 | SPVI | ≤ 0.25
90 | VLTA | ≤ 0.25
91 | NFNY | ≤ 0.25
92 | QRFH | ≤ 0.25
93 | ELTW | ≤ 0.25
94 | TKRC | ≤ 0.25
95 | FPYD | ≤ 0.25
96 | QLCT | ≤ 0.25

Row | Variant | enrichment ratio
97 | HWKW | ≤ 0.25
98 | WQMV | ≤ 0.25
99 | GNTW | ≤ 0.25
100 | NFRD | ≤ 0.25
101 | LPHK | ≤ 0.25
102 | VSMT | ≤ 0.25
103 | VIID | ≤ 0.25
104 | MSAE | ≤ 0.25
105 | SCIK | 1.98
106 | RMHP | ≤ 0.25
107 | WDTH | ≤ 0.25
108 | DPKF | ≤ 0.25
109 | VIRN | ≤ 0.25
110 | LMYF | ≤ 0.25
111 | HMHY | ≤ 0.25
112 | QARP | ≤ 0.25
113 | NHYR | ≤ 0.25
114 | GAMW | ≤ 0.25
115 | GMYV | ≤ 0.25
116 | NQPR | ≤ 0.25
117 | MELG | 22.3
118 | AMDR | ≤ 0.25
119 | GKIV | 4.89
120 | LYQW | ≤ 0.25

Row | Variant | enrichment ratio
121 | EDSG | ≤ 0.25
122 | WYPL | ≤ 0.25
123 | HWGM | ≤ 0.25
124 | RNWY | ≤ 0.25
125 | THRW | ≤ 0.25
126 | NHES | ≤ 0.25
127 | GGVS | ≤ 0.25
128 | WSYK | ≤ 0.25
129 | WKLT | ≤ 0.25
130 | VWCG | ≤ 0.25
131 | HKPD | ≤ 0.25
132 | NYNS | ≤ 0.25
133 | AMVT | ≤ 0.25
134 | EIEV | ≤ 0.25
135 | DRIM | ≤ 0.25
136 | DPPW | ≤ 0.25
137 | MDDL | ≤ 0.25
138 | LDPS | ≤ 0.25
139 | PNWG | ≤ 0.25
140 | KGWF | ≤ 0.25
141 | HLDH | ≤ 0.25
142 | RMPA | ≤ 0.25
143 | ICDF | ≤ 0.25
144 | IYSD | ≤ 0.25

Row | Variant | enrichment ratio
145 | MRMR | ≤ 0.25
146 | TLQT | 8.12
147 | IHTH | ≤ 0.25
148 | YKVC | ≤ 0.25
149 | IHVC | ≤ 0.25
150 | TPLR | ≤ 0.25
151 | NRFE | ≤ 0.25
152 | PQNF | ≤ 0.25
153 | GVKL | ≤ 0.25
154 | PNMF | ≤ 0.25
155 | EGYD | ≤ 0.25
156 | ETFG | ≤ 0.25
157 | EFCI | ≤ 0.25
158 | HTPV | ≤ 0.25
159 | NSRA | 0.539
160 | RQWA | ≤ 0.25
161 | NMGQ | ≤ 0.25
162 | GDHN | ≤ 0.25
163 | IHAQ | ≤ 0.25
164 | LGFA | ≤ 0.25
165 | APCL | ≤ 0.25
166 | ESLL | 0.525
167 | AQCP | ≤ 0.25
168 | IIYK | ≤ 0.25

Row | Variant | enrichment ratio
169 | PARQ | ≤ 0.25
170 | KLGM | ≤ 0.25
171 | NGEF | ≤ 0.25
172 | IKIN | ≤ 0.25
173 | DYVH | ≤ 0.25
174 | GWEI | ≤ 0.25
175 | HRMV | ≤ 0.25
176 | HKMS | ≤ 0.25
177 | RPPC | ≤ 0.25
178 | RVTY | ≤ 0.25
179 | VLAR | ≤ 0.25
180 | RCLY | ≤ 0.25
181 | AHHF | ≤ 0.25
182 | GKMY | ≤ 0.25
183 | PHPR | ≤ 0.25
184 | SSYF | 2.66
185 | MHTF | ≤ 0.25
186 | YYYY | ≤ 0.25
187 | QSYF | 7.8
188 | VWDC | ≤ 0.25
189 | MHAE | ≤ 0.25
190 | EILT | ≤ 0.25
191 | PLYF | ≤ 0.25
192 | WTIL | ≤ 0.25

Row | Variant | enrichment ratio
193 | AGWD | ≤ 0.25
194 | PSHH | ≤ 0.25
195 | WRFM | ≤ 0.25
196 | NLRW | ≤ 0.25
197 | IHLQ | ≤ 0.25
198 | NMSK | ≤ 0.25
199 | KQFP | ≤ 0.25
200 | LQVF | ≤ 0.25
201 | RSLY | ≤ 0.25
202 | REYL | ≤ 0.25
203 | TLKM | ≤ 0.25
204 | GHVF | ≤ 0.25
205 | RCPS | ≤ 0.25
206 | WDHM | ≤ 0.25
207 | HLNQ | ≤ 0.25
208 | CCHY | ≤ 0.25
209 | KIFT | ≤ 0.25
210 | SERP | ≤ 0.25
211 | PMCD | ≤ 0.25
212 | GWMW | ≤ 0.25
213 | GPGK | ≤ 0.25
214 | YASM | ≤ 0.25
215 | YEEC | ≤ 0.25
216 | YQDS | ≤ 0.25

Row | Variant | enrichment ratio
217 | WYGH | ≤ 0.25
218 | DYYW | ≤ 0.25
219 | TDYN | ≤ 0.25
220 | MHHP | ≤ 0.25
221 | HKTT | ≤ 0.25
222 | ARNY | ≤ 0.25
223 | DRSG | ≤ 0.25
224 | SHGI | ≤ 0.25
225 | FMGG | ≤ 0.25
226 | VEEI | ≤ 0.25
227 | FFKY | ≤ 0.25
228 | KNNP | ≤ 0.25
229 | HRFW | ≤ 0.25
230 | NETL | ≤ 0.25
231 | ILMR | ≤ 0.25
232 | DMEP | ≤ 0.25
233 | QLFI | ≤ 0.25
234 | LGTY | ≤ 0.25
235 | QMSS | 0.71
236 | NMSW | ≤ 0.25
237 | WTHR | ≤ 0.25
238 | SGMH | 7.55
239 | SMYE | ≤ 0.25
240 | VSYP | ≤ 0.25

Row | Variant | enrichment ratio
241 | WTQA | ≤ 0.25
242 | RDLV | ≤ 0.25
243 | HVVP | ≤ 0.25
244 | GDQQ | ≤ 0.25
245 | DASM | ≤ 0.25
246 | SWVF | ≤ 0.25
247 | KFVY | ≤ 0.25
248 | YTVQ | 0.393
249 | WPTP | ≤ 0.25
250 | FPIW | ≤ 0.25
251 | GFGW | ≤ 0.25
252 | RPIV | ≤ 0.25
253 | STPR | ≤ 0.25
254 | NNNM | ≤ 0.25
255 | AMYP | ≤ 0.25
256 | STQC | 4.1
257 | EIVF | ≤ 0.25
258 | QPLL | ≤ 0.25
259 | ADMY | 0.253
260 | RRDV | ≤ 0.25
261 | QWMS | ≤ 0.25
262 | YMER | ≤ 0.25
263 | CAFK | ≤ 0.25
264 | TRTN | ≤ 0.25

Row | Variant | enrichment ratio
265 | MEEL | ≤ 0.25
266 | AHHG | ≤ 0.25
267 | GYGY | ≤ 0.25
268 | FVTG | ≤ 0.25
269 | ESVR | ≤ 0.25
270 | QTCN | ≤ 0.25
271 | ELYV | ≤ 0.25
272 | TLFC | 0.278
273 | IRAP | ≤ 0.25
274 | KNIQ | ≤ 0.25
275 | EDHH | ≤ 0.25
276 | WNQL | ≤ 0.25
277 | DMRL | ≤ 0.25
278 | YTVP | ≤ 0.25
279 | WNVV | ≤ 0.25
280 | KDSH | ≤ 0.25
281 | DLCP | ≤ 0.25
282 | ACIQ | 11.8
283 | IRAN | ≤ 0.25
284 | GSNG | ≤ 0.25
285 | TLMH | ≤ 0.25
286 | GEQI | ≤ 0.25
287 | SGLP | ≤ 0.25
288 | APPR | ≤ 0.25

Row | Variant | enrichment ratio
289 | NMFY | ≤ 0.25
290 | HLVY | ≤ 0.25
291 | VRYH | ≤ 0.25
292 | FRHD | ≤ 0.25
293 | LQCF | ≤ 0.25
294 | DHND | ≤ 0.25
295 | AITL | 24.3
296 | HEYF | ≤ 0.25
297 | TVQF | 1.22
298 | LWEH | ≤ 0.25
299 | PDIA | ≤ 0.25
300 | KNTA | ≤ 0.25
301 | IDPY | ≤ 0.25
302 | HKIW | ≤ 0.25
303 | EAQV | ≤ 0.25
304 | NCKC | ≤ 0.25
305 | GFVK | ≤ 0.25
306 | DDGK | ≤ 0.25
